# Assay results from the supplement of paper PMC4604168 (melanoma cell lines).
# This is one part of the list. Repeats are few or missing, and single values can be far off.
# Test system: WM451Lu
# Assay: cell count relative to DMSO control; melanoma cells; higher = more viable cells
# Settings: library dose: standard library concentration; 72 h
# 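Also: cells treated in 1,536-well plates, then fixed and DAPI-stained, with nuclei counted from automated high-throughput microscope images.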
row,SMILES,cell count
1,"C#Cc1cccc(Nc2ncnc3cc(OCCOC)c(OCCOC)cc23)c1 [erlotinib] + Cn1nnc2c(C(N)=O)ncn2c1=O [temozolomide] (first compound 4 µM, partner dose 10 µM)",76.3%
2,"Clc1ccc(Nc2nnc(Cc3ccncc3)c3ccccc23)cc1 [vatalanib] + Nc1cccc2c1CN(C1CCC(=O)NC1=O)C2=O [lenalidomide] (first compound 10 µM, partner dose 5 µM)",89.2%
3,"C#Cc1cccc(Nc2ncnc3cc(OCCOC)c(OCCOC)cc23)c1 [erlotinib] + Cc1nc(Nc2ncc(C(=O)Nc3c(C)cccc3Cl)s2)cc(N2CCN(CCO)CC2)n1 [dasatanib] (first compound 4 µM, partner dose 0.02 µM)",55.1%
4,"OCc1c[nH]c2ccccc12 [Indole-3-carbinol] + OCCn1cc(-c2cnc3nnn(Cc4ccc5ncccc5c4)c3n2)cn1 [PF04217903] (first compound 4 µM, partner dose 5 µM)",113%
5,"COCC[n+]1c2c(n(Cc3cnccn3)c1C)C(=O)c1ccccc1C2=O + OCCn1cc(-c2cnc3nnn(Cc4ccc5ncccc5c4)c3n2)cn1 [PF04217903] (first compound 0.002 µM, partner dose 5 µM)",49.8%
6,"Cn1c(Nc2ccc(C(F)(F)F)cc2)nc2cc(Oc3ccnc(-c4ncc(C(F)(F)F)[nH]4)c3)ccc21 + Cn1nnc2c(C(N)=O)ncn2c1=O [temozolomide] (first compound 0.4 µM, partner dose 10 µM)",44.2%
7,"Nc1cccc2c1CN(C1CCC(=O)NC1=O)C2=O (stereo not given) [lenalidomide] + C[C@]1(c2nc3c(C(N)=O)cccc3[nH]2)CCCN1 [Veliparib] (first compound 5 µM, partner dose 7 µM)",130%
8,"OCc1c[nH]c2ccccc12 [Indole-3-carbinol] + CC(C)(C)c1cnc(CSc2cnc(NC(=O)C3CCNCC3)s2)o1 [SNS-032] (first compound 4 µM, partner dose 0.05 µM)",73.4%
9,"Clc1ccc(Nc2nnc(Cc3ccncc3)c3ccccc23)cc1 [vatalanib] + Cc1nc(Nc2ncc(C(=O)Nc3c(C)cccc3Cl)s2)cc(N2CCN(CCO)CC2)n1 [dasatanib] (first compound 10 µM, partner dose 0.02 µM)",77%
10,"OCc1c[nH]c2ccccc12 [Indole-3-carbinol] + C#Cc1cccc(Nc2ncnc3cc(OCCOC)c(OCCOC)cc23)c1 [erlotinib] (first compound 4 µM, partner dose 4 µM)",80.4%
11,"Nc1cccc2c1CN(C1CCC(=O)NC1=O)C2=O (stereo not given) [lenalidomide] + Cn1nnc2c(C(N)=O)ncn2c1=O [temozolomide] (first compound 5 µM, partner dose 10 µM)",108%
12,"OCc1c[nH]c2ccccc12 [Indole-3-carbinol] + Cn1c(Nc2ccc(C(F)(F)F)cc2)nc2cc(Oc3ccnc(-c4ncc(C(F)(F)F)[nH]4)c3)ccc21 [CHIR265] (first compound 4 µM, partner dose 0.4 µM)",44.7%
13,"OCc1c[nH]c2ccccc12 [Indole-3-carbinol] + COc1cc(Nc2ncc(F)c(Nc3ccc4c(n3)NC(=O)C(C)(C)O4)n2)cc(OC)c1OC [Tamatinib] (first compound 4 µM, partner dose 2 µM)",93%
14,"O=C(CCCCCCC(=O)Nc1ccccc1)NO [vorinostat] + NC(=O)Nc1cc(-c2cccc(F)c2)sc1C(=O)N[C@H]1CCCNC1 [AZD7762] (first compound 0.4 µM, partner dose 0.1 µM)",49.1%
15,"Clc1ccc(Nc2nnc(Cc3ccncc3)c3ccccc23)cc1 [vatalanib] + Cn1c(Nc2ccc(C(F)(F)F)cc2)nc2cc(Oc3ccnc(-c4ncc(C(F)(F)F)[nH]4)c3)ccc21 [CHIR265] (first compound 10 µM, partner dose 0.4 µM)",53.9%
16,"C#Cc1cccc(Nc2ncnc3cc(OCCOC)c(OCCOC)cc23)c1 [erlotinib] + Nc1cccc2c1CN(C1CCC(=O)NC1=O)C2=O [lenalidomide] (first compound 4 µM, partner dose 5 µM)",107%
17,"OCc1c[nH]c2ccccc12 [Indole-3-carbinol] + COc1ccc(Cl)c(Nc2nc3ccccc3nc2NS(=O)(=O)c2cccc(NC(=O)C(C)(C)N)c2)c1 [XL147] (first compound 4 µM, partner dose 4 µM)",74.8%
18,"OCc1c[nH]c2ccccc12 [Indole-3-carbinol] + Cn1nnc2c(C(N)=O)ncn2c1=O [temozolomide] (first compound 4 µM, partner dose 10 µM)",98.9%

row,SMILES,cell count
1,"Clc1ccc(Nc2nnc(Cc3ccncc3)c3ccccc23)cc1 [vatalanib] + C[C@@H]1CCN(C(=O)CC#N)C[C@@H]1N(C)c1ncnc2[nH]ccc12 [CP690550] (first compound 10 µM, partner dose 5 µM)",90.9%
2,"Cn1c(Nc2ccc(C(F)(F)F)cc2)nc2cc(Oc3ccnc(-c4ncc(C(F)(F)F)[nH]4)c3)ccc21 + Nc1cccc2c1CN(C1CCC(=O)NC1=O)C2=O [lenalidomide] (first compound 0.4 µM, partner dose 5 µM)",62.1%
3,"Clc1ccc(Nc2nnc(Cc3ccncc3)c3ccccc23)cc1 [vatalanib] + O=C(O)c1ccc(-c2c[nH]c3ncc(-c4ccccc4)cc23)cc1C1CCCC1 [GSK650394] (first compound 10 µM, partner dose 0.8 µM)",85.9%
4,"COCC[n+]1c2c(n(Cc3cnccn3)c1C)C(=O)c1ccccc1C2=O + Cn1nnc2c(C(N)=O)ncn2c1=O [temozolomide] (first compound 0.002 µM, partner dose 10 µM)",23.1%
5,"Clc1ccc(Nc2nnc(Cc3ccncc3)c3ccccc23)cc1 [vatalanib] + C#Cc1cccc(Nc2ncnc3cc(OCCOC)c(OCCOC)cc23)c1 [erlotinib] (first compound 10 µM, partner dose 4 µM)",90.9%
6,"Clc1ccc(Nc2nnc(Cc3ccncc3)c3ccccc23)cc1 [vatalanib] + COCC[n+]1c2c(n(Cc3cnccn3)c1C)C(=O)c1ccccc1C2=O [YM155] (first compound 10 µM, partner dose 0.002 µM)",63%
7,"Cn1c(Nc2ccc(C(F)(F)F)cc2)nc2cc(Oc3ccnc(-c4ncc(C(F)(F)F)[nH]4)c3)ccc21 + C[C@]1(c2nc3c(C(N)=O)cccc3[nH]2)CCCN1 [Veliparib] (first compound 0.4 µM, partner dose 7 µM)",51.2%
8,"Nc1cccc2c1CN(C1CCC(=O)NC1=O)C2=O (stereo not given) [lenalidomide] + CO[C@@H]1[C@H](N(C)C(=O)c2ccccc2)C[C@H]2O[C@]1(C)n1c3ccccc3c3c4c(c5c6ccccc6n2c5c31)C(=O)NC4 [Midostaurin] (first compound 5 µM, partner dose 0.4 µM)",96.1%
9,"C#Cc1cccc(Nc2ncnc3cc(OCCOC)c(OCCOC)cc23)c1 [erlotinib] + C[C@]1(c2nc3c(C(N)=O)cccc3[nH]2)CCCN1 [Veliparib] (first compound 4 µM, partner dose 7 µM)",70.6%
10,"OCc1c[nH]c2ccccc12 [Indole-3-carbinol] + C[C@]1(c2nc3c(C(N)=O)cccc3[nH]2)CCCN1 [Veliparib] (first compound 4 µM, partner dose 7 µM)",119%
11,"COCC[n+]1c2c(n(Cc3cnccn3)c1C)C(=O)c1ccccc1C2=O + C[C@]1(c2nc3c(C(N)=O)cccc3[nH]2)CCCN1 [Veliparib] (first compound 0.002 µM, partner dose 7 µM)",38.8%
12,"Clc1ccc(Nc2nnc(Cc3ccncc3)c3ccccc23)cc1 [vatalanib] + CN(C)S(=O)(=O)c1ccc2c(c1)/C(=C/c1cc3c([nH]1)CCCC3)C(=O)N2 [SU6656] (first compound 10 µM, partner dose 2 µM)",60.7%
13,"OCc1c[nH]c2ccccc12 [Indole-3-carbinol] + Clc1ccc(Nc2nnc(Cc3ccncc3)c3ccccc23)cc1 [vatalanib] (first compound 4 µM, partner dose 10 µM)",102%
14,"COCC[n+]1c2c(n(Cc3cnccn3)c1C)C(=O)c1ccccc1C2=O + Nc1cccc2c1CN(C1CCC(=O)NC1=O)C2=O [lenalidomide] (first compound 0.002 µM, partner dose 5 µM)",29.3%
15,"C#Cc1cccc(Nc2ncnc3cc(OCCOC)c(OCCOC)cc23)c1 [erlotinib] + COCC[n+]1c2c(n(Cc3cnccn3)c1C)C(=O)c1ccccc1C2=O [YM155] (first compound 4 µM, partner dose 0.002 µM)",18.5%
16,"Clc1ccc(Nc2nnc(Cc3ccncc3)c3ccccc23)cc1 [vatalanib] + COc1ccc(Cl)c(Nc2nc3ccccc3nc2NS(=O)(=O)c2cccc(NC(=O)C(C)(C)N)c2)c1 [XL147] (first compound 10 µM, partner dose 4 µM)",78%
17,"C#Cc1cccc(Nc2ncnc3cc(OCCOC)c(OCCOC)cc23)c1 [erlotinib] + Cn1c(Nc2ccc(C(F)(F)F)cc2)nc2cc(Oc3ccnc(-c4ncc(C(F)(F)F)[nH]4)c3)ccc21 [CHIR265] (first compound 4 µM, partner dose 0.4 µM)",44%
